Results from PubChem BioAssay AID624417 (National Center for Advancing Translational Sciences (NCATS), 2012).
Among all 410,000 compounds or so, about 6,400 (1.6%) were called active. The shares of active, inactive and inconclusive entries below differ from those in the screen. Calls follow the shape of the dose curve; as a rule, active = well fitted inhibition curve with a large enough effect; inconclusive = small, poorly fitted or top-dose-only effect; inactive = no such curve, though single readings can be large or run the other way. Potencies of inconclusive entries are left out as doubtful fits.
% is scaled to controls: 0 for no effect and ±100 for the full control effect; potency is read from the fitted curve at half-maximal effect; tags tell the direction and shape of the fitted curve.
Also: nearly all actives have a fitted effect of over 55% in size.

Each molecule was assayed against Glucagon-like peptide 1 receptor (Homo sapiens) (UniProt P43220) (assay: qHTS of GLP-1 Receptor Inverse Agonists (Inhibition Mode)). Settings: HEK293 GLP-1R CRE-luciferase, luminescence, 24 h, GLP-1R form is constitutively active; activity change, negative = inhibition: at 38.3 µM (top of the series) unless noted.
Sequence of UniProt P43220 (P43220 whole entry, looked up): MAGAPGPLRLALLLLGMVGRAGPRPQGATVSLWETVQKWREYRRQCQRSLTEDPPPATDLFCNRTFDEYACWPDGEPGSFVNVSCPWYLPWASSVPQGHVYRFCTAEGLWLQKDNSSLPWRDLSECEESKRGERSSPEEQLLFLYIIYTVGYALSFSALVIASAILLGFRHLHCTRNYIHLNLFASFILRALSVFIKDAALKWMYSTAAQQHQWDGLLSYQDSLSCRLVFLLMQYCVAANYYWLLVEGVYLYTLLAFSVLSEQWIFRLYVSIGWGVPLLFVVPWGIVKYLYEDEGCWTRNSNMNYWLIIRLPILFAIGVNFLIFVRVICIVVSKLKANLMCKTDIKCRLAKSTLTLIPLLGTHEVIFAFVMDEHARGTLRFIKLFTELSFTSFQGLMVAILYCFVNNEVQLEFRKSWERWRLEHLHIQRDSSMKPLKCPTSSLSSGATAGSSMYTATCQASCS
How it was run: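 qHTS in 1536-well format: reporter HEK293 cells expressing constitutive GLP-1R activity in DMEM + 10% Nu serum, 24 hr with compounds at 37 deg C, luminescence read after 12 min with detection reagent.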
With `S=c1[nH]nc(C2CCCCC2)n1/N=C/c1ccncc1` the Potency was active: 1.78 µM. With `Cc1ccc(CC(=O)Nc2nc3c(s2)CCCC3)cc1` the Potency was inconclusive [inhibitor, partial curve]. `COc1ccc(S(=O)(=O)N(Cc2nc(-c3ccc(C)cc3)no2)C2CCCCC2)cc1` was tested, and the Potency was inconclusive [inhibitor, single point]. `CCN(CC)CCCNC(=O)c1ccc(OCC(=O)Nc2ccccc2C(F)(F)F)c(OC)c1` was tested, and the Potency was inconclusive [inhibitor, partial curve, poor fit]. In the case of `Cc1cccc(C2(c3cccc(C)c3)CC2C(=O)NCC2CCCO2)c1` (configuration not stated), the Potency is reported as inconclusive [inhibitor, partial curve, poor fit]. With `O=C(CN1CCN(c2ccc(O)cc2)CC1)Nc1cc(S(=O)(=O)N2CCCCC2)ccc1Cl` the Potency was inconclusive [inhibitor, full curve, poor fit]. For `CC(NC(=S)Nc1c(Br)cccc1OC(F)F)C(C)(C)C` (configuration not stated), the Potency was inconclusive [inhibitor, single point]. With `Cn1c(=S)[nH]c2c(c1=O)C(C)(C)Cc1ccccc1-2` the Potency was inconclusive [inhibitor, full curve, poor fit]. `COc1ccc(/C=N/NC(=O)c2ccoc2C)cc1COc1ccc(Cl)cc1` was tested, and the Potency was inconclusive [inhibitor, partial curve, poor fit]. `Cn1nc(C(=O)N2CCN(C(c3ccccc3)c3ccccc3)CC2)c2ccccc2c1=O` was tested, and the Potency was inconclusive [inhibitor, partial curve, poor fit]. For `Cc1cccc(CN2CCN(C3CN(C4CCCCC4)S(=O)(=O)C3)CC2)c1` (configuration not stated), the Potency was “inactive”. For `O=C1CC(Cc2ccc(Br)cc2)C(=O)N1c1ccccc1` (configuration not stated), the Potency was inconclusive [inhibitor, single point]. For `CCCCOCCCNC(=O)C[C@@H]1C[C@@]2(C(=O)OC)CCCCC=C2N(Cc2ccc(Cl)cc2Cl)C1=O`, the Potency was inconclusive [inhibitor, partial curve, poor fit]. With `CCOC(=O)c1ccc(NC(=O)NCCc2ccccc2OC)cc1` the Potency was inconclusive [inhibitor, single point]. In the case of `Nc1nonc1-n1nnc(C(=O)N/N=C/c2ccccc2)c1CSc1ccccc1`, the Potency is reported as “inactive”. With `COc1ccc(-c2sc3ccccc3c2-c2cc(OC)ccc2C=O)cc1` the Potency was inconclusive [inhibitor, single point]. For `O=C(CC1SC(N2CCCC2)=NC1=O)Nc1ccc(C(=O)Nc2ncccc2O)cc1` (configuration not stated), the Potency was “inactive”. `Cc1onc(-c2ccccc2)c1C(=O)NC(=S)NNC(=O)c1ccc(O)cc1O` was tested, and the Potency was inconclusive [inhibitor, full curve, poor fit]. With `CCCCc1ccc(NC(=O)CN2C(=O)NC(Cc3ccccc3)C2=O)cc1` (configuration not stated) the Potency was inconclusive [inhibitor, full curve]. With `CC1CN(Cc2ccccc2)c2ccccc2NC1=S` (configuration not stated) the Potency was active: 11.2 µM. With `O=C(/C=C/Nc1ccc(F)cc1F)c1cccs1` the Potency was inconclusive [inhibitor, partial curve, poor fit]. For `O=C1[C@@H]2CSC(c3ccc(F)cc3)N2C(=O)N1c1ccc(Cl)cc1` (some centres not stated), the Potency was inconclusive [inhibitor, single point]. `Cn1c(=O)c2c(nc(NC3CCCCC3)n2CC(O)COc2ccccc2)n(C)c1=O` (configuration not stated) was tested, and the Potency was inconclusive [inhibitor, single point]. `O=C(Cn1c(=O)n(Cc2ccco2)c(=O)c2c3c(sc21)CCCCC3)Nc1ccccc1` was tested, and the Potency was inconclusive [inhibitor, partial curve, poor fit]. `O=C(Cn1c(=O)n2nc(-c3ccccc3)nc2c2ccccc21)Nc1ccccc1C(F)(F)F` was tested, and the Potency was “inactive”. With `Cc1cccc(NC(=O)c2cc(S(=O)(=O)N3CCCCC3)c[nH]2)c1C` the Potency was inconclusive [inhibitor, single point]. `Brc1csc(CN2CCc3nc(Nc4ccccc4)ncc3C2)c1` was tested, and the Potency was inconclusive [inhibitor, partial curve, poor fit]. In the case of `COc1ccc(C2c3ccc4ccccc4c3Oc3ncn(CCCN(C)C)c(=N)c32)cc1` (configuration not stated), the Potency is reported as active: 4.47 µM. `CC(C)Nc1ccc(-n2nc3ccccc3[n+]2[O-])cc1` was tested, and the activity change, negative = inhibition was inconclusive: -81.9% [inhibitor]. With `CC1(C)CN2C(=S)N(c3ccccc3)C(c3ccccc3)N2C1` (configuration not stated) the Potency was inconclusive [inhibitor, partial curve, poor fit]. In the case of `Cc1cccc(Cn2c(SCc3ccc(C(=O)N4CCCCCC4)cc3)nc3ccncc32)c1`, the Potency is reported as inconclusive [inhibitor, single point]. In the case of `CC(c1cccnc1)N(CCN(C)C)C(=O)Nc1ccc(Cl)c(Cl)c1` (configuration not stated), the Potency is reported as inconclusive [inhibitor, single point]. `CCCn1nc(NC(=O)C2CCCO2)c2cc3cccc(C)c3nc21` (configuration not stated) was tested, and the Potency was inconclusive [inhibitor, single point]. `Cn1c(NCc2ccncc2)nc2cc(-c3ccsc3)sc2c1=O` was tested, and the Potency was “inactive”. For `CC(NC(=O)c1ccc2c(c1)OCO2)c1ccccc1` (configuration not stated), the Potency was “inactive”. With `COc1ccc(C2=NOC(Cn3nc(C(=O)NCc4ccc5c(c4)OCO5)cc3-c3ccccc3)C2)cc1` (configuration not stated) the Potency was inconclusive [inhibitor, partial curve, poor fit]. In the case of `CC(C)(C)c1ccc(-c2cc(-c3ccccc3O)[nH]n2)cc1`, the Potency is reported as inconclusive [inhibitor, partial curve, poor fit]. For `CC(=O)n1cc([C@@H]2C=C(C(=O)N3CCN(Cc4ccccc4)CC3)O[C@H](OCc3ccc(CO)cc3)C2)c2ccccc21`, the Potency was inconclusive [inhibitor, single point]. With `COc1ccccc1C(=O)N(Cc1ccccc1)c1ccc(C)cc1` the Potency was inconclusive [inhibitor, partial curve, poor fit]. In the case of `Cn1nccc1C(=O)N1CCc2c([nH]c3ccccc23)C1c1ccc(F)cc1` (configuration not stated), the Potency is reported as inconclusive [inhibitor, partial curve, poor fit]. With `Cc1ccc(C)c(N(C)C(=O)c2cn(C)c(=O)c3ccccc23)c1` the Potency was active: 6.31 µM. In the case of `CCCCNC(=O)CN1C(=O)NC(Cc2ccccc2)(Cc2ccccc2)C1=O`, the Potency is reported as inconclusive [inhibitor, partial curve, poor fit]. For `Cc1cc(C)cc(C(=O)N2CC(C)SC2=Nc2cccc(S(=O)(=O)N(C)C)c2)c1` (configuration not stated), the Potency was inconclusive [inhibitor, partial curve, poor fit]. For `CCOC(=O)c1c(Oc2ccc(C(=O)OC)cc2)nnc(-c2ccccc2)c1-c1ccccc1`, the Potency was inconclusive [inhibitor, partial curve, poor fit]. With `COc1ccc(OCC(=O)Nc2nc3c(s2)CCCC3)cc1` the Potency was inconclusive [inhibitor, single point]. For `CCOC(=O)C1CCN(C(=O)c2oc3ccc(S(=O)(=O)N4CCCCCC4)cc3c2C)CC1`, the Potency was inconclusive [inhibitor, single point]. For `Cc1onc(-c2ccccc2Cl)c1C(=O)OCC(=O)c1c(N)n(C)c(=O)n(C)c1=O`, the Potency was “inactive”. `CCN(C(=O)Cn1c(C(=O)OC)cc2oc3ccccc3c21)c1cccc(C)c1` was tested, and the Potency was inconclusive [inhibitor, partial curve, poor fit]. For `Clc1ccc(CO/N=C2\CCCc3nonc32)cc1`, the Potency was inconclusive [inhibitor, partial curve, poor fit]. In the case of `O=S(=O)(NCc1ccco1)c1cnc(Cl)c(Br)c1`, the Potency is reported as “inactive”. `CCOC(=O)c1c(S(=O)(=O)Nc2cccc(Cl)c2)c(C)n(C)c1C` was tested, and the Potency was inconclusive [inhibitor, full curve, poor fit]. `Cc1cc(C)cc(-n2cnc3cc(C(=O)NCCc4ccccc4)ccc32)c1` was tested, and the Potency was “inactive”. For `C[N+](C)(C)CCC(=O)N1C/C(=C/c2ccccc2)C(=O)/C(=C\c2ccccc2)C1`, the Potency was inconclusive [inhibitor, single point]. In the case of `O=C(CCCN1CC=C(n2c(=O)[nH]c3ccccc32)CC1)c1ccc(F)cc1`, the Potency is reported as inconclusive [inhibitor, partial curve, poor fit]. In the case of `C=CCn1c(SCC(=O)Nc2sc3c(c2C#N)CCC3)nnc1C1COc2ccccc2O1` (configuration not stated), the Potency is reported as inconclusive [inhibitor, partial curve, poor fit]. `CCN(CC)C(=O)c1ccc(COc2ccccc2Br)o1` was tested, and the Potency was inconclusive [inhibitor, partial curve, poor fit]. `COc1cccc(C(=O)Nc2cccc(OCC(=O)c3ccccc3)c2)c1` was tested, and the Potency was inconclusive [inhibitor, partial curve, poor fit]. With `CCOc1ccccc1-c1nc(-c2ccc(-c3ccccc3)nc2OCC)no1` the Potency was “inactive”. In the case of `COc1ccc2nc(N(Cc3cccnc3)C(=O)CCc3ccccc3)sc2c1`, the Potency is reported as inconclusive [inhibitor, single point]. With `OC(CN1C2=NCCCN2c2ccccc21)c1ccc(Br)cc1` (configuration not stated) the Potency was inconclusive [inhibitor, partial curve]. For `COc1cc(OC)c(NC(c2nnc(-c3ccccc3)o2)c2ccc(F)cc2Cl)cc1Cl` (configuration not stated), the Potency was inconclusive [inhibitor, partial curve, poor fit]. `CCCCCc1ccc(OCCCC[n+]2ccc(C)cc2)c(CCCCC)c1` was tested, and the Potency was inconclusive [inhibitor, partial curve, poor fit].
